Results published in the supplement of paper PMC10369915.
The other results are listed elsewhere or left out. Rule as the data show it: active = 3.2 or more and inactive = the rest. Only a few entries rise above the background.

B1: VAV3_HUMAN_141 (peptide)
chain: SINDEDIYKGLPDLI
B2: VGFR2_HUMAN_1054_YA (peptide)
chain: FGLARDIYKDPDAVR
B3: VAV_HUMAN_844 (peptide)
chain: VEEDYSEYCGGGGGG
B4: BCLAF1_HUMAN_93 (peptide)
chain: GRYHRGGYRPVWNRR
B5: VAMP7_HUMAN_45_YA (peptide)
chain: SENNKLTYSHGNALF
B6: VGFR3_HUMAN_1333 (peptide)
chain: ARGGQVFYNSEYGEL
B7: VGFR1_HUMAN_1053_YA (peptide)
chain: DIAKNPDYVRKGDTR
B8: VGFR1_HUMAN_1053 (peptide)
chain: DIYKNPDYVRKGDTR
B9: VGFR3_HUMAN_1265 (peptide)
chain: FPMTPTTYKGSVDNQ
B10: UFO_HUMAN_703 (peptide)
chain: KIYNGDYYRQGRIAK
B11: VGFR2_HUMAN_1305_YA (peptide)
chain: GSNQTSGYQSGAHSD
B12: VGFR1_HUMAN_914_YA (peptide)
chain: VIVEACKYGNLSNAL
B13: VGFR2_HUMAN_996 (peptide)
chain: EEAPEDLYKDFLTLE
B14: VAV1_HUMAN_160 (peptide)
chain: VEEDEDLYDCVENEE
B15: VGFR1_HUMAN_914 (peptide)
chain: VIVEYCKYGNLSNYL
B16: VGFR1_HUMAN_1327 (peptide)
chain: CCSPPPDYNSVVLYS
B17: URP2_HUMAN_504 (peptide)
chain: SAEGLNPYGLVAPRF
B18: BCLAF1_HUMAN_150 (peptide)
chain: SSRSSSPYSKSPVSK
B19: BCLAF1_HUMAN_93_YA (peptide)
chain: GRAHRGGYRPVWNRR
B20: ABCB7_HUMAN_340_YA (peptide)
chain: AIDSLLNYETVKAFN
B21: VGFR3_HUMAN_833 (peptide)
chain: EQCEYLSYDASQWEF
B22: VGFR2_HUMAN_1175 (peptide)
chain: AQQDGKDYIVLPISE
B23: VHL_HUMAN_112 (peptide)
chain: TGRRIHSYRGHLWLF
B24: VAV1_HUMAN_267_YA (peptide)
chain: TPGAANLYQVFIKAK
B25: VGFR2_HUMAN_1059 (peptide)
chain: DIYKDPDYVRKGDAR
B26: VAMP7_HUMAN_45 (peptide)
chain: SENNKLTYSHGNYLF
B27: UFO_HUMAN_779 (peptide)
chain: ADCLDGLYALMSRCW
B28: UFO_HUMAN_703_YA (peptide)
chain: KIANGDAYRQGRIAK
B29: BCAR1_HUMAN_664_YA (peptide)
chain: EGGWMEDYDAVHLQG
B30: VAV3_HUMAN_173 (peptide)
chain: EDEGGEVYEDLMKAE
B31: UFO_HUMAN_866 (peptide)
chain: EVHPAGRYVLCPSTT
B32: VGFR2_HUMAN_1059_YA (peptide)
chain: DIAKDPDYVRKGDAR
B33: VGFR2_HUMAN_1054 (peptide)
chain: FGLARDIYKDPDYVR
B34: VGFR2_HUMAN_1305 (peptide)
chain: GSNQTSGYQSGYHSD
B35: UGGG2_HUMAN_1289_YA (peptide)
chain: AKEAGFRYELVQARW
B36: BCLF1_HUMAN_219 (peptide)
chain: IWPGLSAYDNSPRSP

Molecular target: SHP2 C-SH2 domain E139D
Assay: enrichment score (SH2-bound / input frequency) (ratio); bacterial display of known human phosphotyrosine sites (pTyr-Var adds point mutants) read by sequencing; higher = stronger binding; tyrosines were phosphorylated by kinases first
Conditions: peptide library: Human pTyr
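Also: displayed peptides selected on beads carrying the immobilized SH2 domain, with library peptides lacking any tyrosine serving as negative controls.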

Binder | enrichment score
B1 | inactive: 0.758
B2 | inactive: 0.991
B3 | inactive: 0.823
B4 | inactive: 0.824
B5 | inactive: 0.761
B6 | inactive: 0.778
B7 | inactive: 0.833
B8 | inactive: 1.26
B9 | inactive: 0.641
B10 | inactive: 1.28
B11 | inactive: 0.607
B12 | inactive: 1.68
B13 | inactive: 1.56
B14 | inactive: 1.23
B15 | inactive: 1.81
B16 | inactive: 0.836
B17 | inactive: 1.07
B18 | inactive: 0.708

Binder | enrichment score
B19 | inactive: 0.781
B20 | inactive: 0.579
B21 | inactive: 1.52
B22 | inactive: 0.789
B23 | inactive: 1.7
B24 | inactive: 1.4
B25 | inactive: 0.847
B26 | inactive: 1.02
B27 | inactive: 1.09
B28 | inactive: 1.34
B29 | inactive: 0.645
B30 | inactive: 1.27
B31 | inactive: 0.946
B32 | inactive: 0.787
B33 | inactive: 1.06
B34 | inactive: 0.605
B35 | inactive: 1.56
B36 | inactive: 0.746

Molecular target: SHP2 C-SH2 domain wild-type
Assay: as above
Conditions: peptide library: Human pTyr

Binder | enrichment score
B1 | inactive: 0.756
B2 | inactive: 0.789
B3 | inactive: 0.786
B4 | inactive: 0.664
B5 | inactive: 0.639
B6 | inactive: 0.673
B7 | inactive: 0.766
B8 | inactive: 0.89
B9 | inactive: 0.588
B10 | inactive: 1.52
B11 | inactive: 0.583
B12 | inactive: 1.57
B13 | inactive: 1.69
B14 | inactive: 1.34
B15 | inactive: 1.45
B16 | inactive: 0.697
B17 | inactive: 0.941
B18 | inactive: 0.644

Binder | enrichment score
B19 | inactive: 0.598
B20 | inactive: 0.573
B21 | inactive: 1.47
B22 | inactive: 0.6
B23 | inactive: 0.539
B24 | inactive: 1.86
B25 | inactive: 0.851
B26 | inactive: 1.27
B27 | inactive: 0.971
B28 | inactive: 1.14
B29 | inactive: 0.574
B30 | inactive: 1.17
B31 | inactive: 0.93
B32 | inactive: 0.652
B33 | inactive: 0.928
B34 | inactive: 0.549
B35 | inactive: 1.24
B36 | inactive: 0.813

Molecular target: SHP2 N-SH2 domain L43F
Assay: as above
Conditions: peptide library: Human pTyr

Binder | enrichment score
B1 | inactive: 0.72
B2 | inactive: 0.667
B3 | inactive: 1.08
B4 | inactive: 0.763
B5 | inactive: 0.8
B6 | inactive: 0.688
B7 | inactive: 0.904
B8 | inactive: 0.951
B9 | inactive: 0.777
B10 | inactive: 1.27
B11 | inactive: 0.579
B12 | inactive: 1.6
B13 | inactive: 1.71
B14 | inactive: 1.57
B15 | inactive: 1.55
B16 | inactive: 0.867
B17 | inactive: 1.04
B18 | inactive: 0.582

Binder | enrichment score
B19 | inactive: 0.706
B20 | inactive: 0.626
B21 | inactive: 1.25
B22 | inactive: 0.463
B23 | inactive: 0.908
B24 | inactive: 1.68
B25 | inactive: 0.841
B26 | inactive: 0.961
B27 | inactive: 1.4
B28 | inactive: 0.983
B29 | inactive: 0.577
B30 | inactive: 1.11
B31 | inactive: 0.865
B32 | inactive: 0.67
B33 | inactive: 1.11
B34 | inactive: 0.521
B35 | inactive: 1.16
B36 | inactive: 0.762

Molecular target: SHP2 N-SH2 domain T42A
Assay: as above
Conditions: peptide library: Human pTyr

Binder | enrichment score
B1 | inactive: 0.746
B2 | inactive: 0.734
B3 | inactive: 0.881
B4 | inactive: 0.647
B5 | inactive: 0.678
B6 | inactive: 0.622
B7 | inactive: 0.854
B8 | inactive: 1.11
B9 | inactive: 0.718
B10 | inactive: 1.22
B11 | inactive: 0.502
B12 | inactive: 1.68
B13 | inactive: 1.34
B14 | inactive: 1.12
B15 | inactive: 1.36
B16 | inactive: 0.783
B17 | inactive: 1.06
B18 | inactive: 0.515

Binder | enrichment score
B19 | inactive: 0.675
B20 | inactive: 0.573
B21 | inactive: 1.37
B22 | inactive: 0.733
B23 | inactive: 0.568
B24 | inactive: 1.66
B25 | inactive: 0.755
B26 | inactive: 0.984
B27 | inactive: 1.05
B28 | inactive: 1.25
B29 | inactive: 0.807
B30 | inactive: 1.23
B31 | inactive: 0.914
B32 | inactive: 0.813
B33 | inactive: 0.907
B34 | inactive: 0.582
B35 | inactive: 1.17
B36 | inactive: 0.568

Molecular target: SHP2 N-SH2 domain T52S
Assay: as above
Conditions: peptide library: Human pTyr

Binder | enrichment score
B1 | inactive: 0.678
B2 | inactive: 0.711
B3 | inactive: 0.896
B4 | inactive: 0.736
B5 | inactive: 0.861
B6 | inactive: 0.704
B7 | inactive: 0.866
B8 | inactive: 1.01
B9 | inactive: 0.718
B10 | inactive: 1.22
B11 | inactive: 0.577
B12 | inactive: 1.5
B13 | inactive: 1.4
B14 | inactive: 1.35
B15 | inactive: 1.73
B16 | inactive: 0.85
B17 | inactive: 0.941
B18 | inactive: 0.681

Binder | enrichment score
B19 | inactive: 0.816
B20 | inactive: 0.592
B21 | inactive: 1.71
B22 | inactive: 0.644
B23 | inactive: 0.314
B24 | inactive: 2.07
B25 | inactive: 0.804
B26 | inactive: 0.946
B27 | inactive: 1.21
B28 | inactive: 1.34
B29 | inactive: 0.68
B30 | inactive: 1.3
B31 | inactive: 1.09
B32 | inactive: 0.884
B33 | inactive: 0.939
B34 | inactive: 0.678
B35 | inactive: 1.42
B36 | inactive: 0.647

Molecular target: SHP2 N-SH2 domain wild-type
Assay: as above
Conditions: peptide library: Human pTyr

Binder | enrichment score
B1 | inactive: 0.74
B2 | inactive: 1.08
B3 | inactive: 0.997
B4 | inactive: 0.732
B5 | inactive: 0.781
B6 | inactive: 0.7
B7 | inactive: 0.988
B8 | inactive: 0.911
B9 | inactive: 0.57
B10 | inactive: 1.64
B11 | inactive: 0.622
B12 | inactive: 1.76
B13 | inactive: 1.76
B14 | inactive: 1.21
B15 | inactive: 1.81
B16 | inactive: 0.978
B17 | inactive: 1.14
B18 | inactive: 0.738

Binder | enrichment score
B19 | inactive: 0.624
B20 | inactive: 0.58
B21 | inactive: 1.63
B22 | inactive: 0.691
B23 | inactive: 0.702
B24 | inactive: 1.45
B25 | inactive: 1.17
B26 | inactive: 1.16
B27 | inactive: 1.18
B28 | inactive: 1.39
B29 | inactive: 0.497
B30 | inactive: 1.23
B31 | inactive: 1.02
B32 | inactive: 0.758
B33 | inactive: 0.871
B34 | inactive: 0.651
B35 | inactive: 1.39
B36 | inactive: 0.591
